Laboratory results published in the supplement of paper PMC12217912.
The list shows a part of the results. Sequences were assembled here from the parent chain. Values near 0.05 are background.

B1: TEV protease; numbered along this chain (parent)
chain: MGESLFKGPRDYNPISSSICHLTNESDGHTTSLYGIGFGPFIITNKHLFRRNNGTLVVQSLHGVFKVKDTTTLQQHLVDGRDMIIIRMPKDFPPFPQKLKFREPQREERICLVTTNFQTKSMSSMVSDTSCTFPSGDGIFWKHWIQTKDGQCGSPLVSTRDGFIVGIHSASNFTNTNNYFTSVPKNFMELLTNQEAQQWVSGWRLNADSVLWGGHKVFMVKPEEPFQPVKEATQL

Variants of: B1
Assay: raw area under fraction-flipped curve 0-4 h after induction (AUC4h, not background-subtracted), DNA-recorder readout of cleavage of the substrate (dimensionless); higher = more cleavage of the substrate by the protease variant
Conditions: temperature: 34 °C; time window: 0-4 h after rhamnose induction
Description: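 In vivo DNA recorder in E. coli TOP10(DE3) ΔrhaA at 34 °C. Each TEVp single-site mutant (parent TEVp 0) is paired with a single-site variant of the 7-mer TEVs (canonical ENLYFQ|S). The substrate sits between flexible linkers in a Bxb1-sfGFP-TEVs-SsrA fusion, so cleavage stabilises Bxb1 and speeds flipping of a recombination array, read by NGS. The value is the raw area under the fraction-flipped curve over 0-4 h after rhamnose induction (AUC4h), with ≥20 reads per time point. It is not background-subtracted; inactive controls average about 0.047.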
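Also: Bxb1 expression induced with 0.2% (w/v) L-rhamnose at OD600 near 0.5, cultures sampled hourly, flipped fraction per protease–substrate barcode pair counted by paired-end Illumina sequencing.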

Variant	area with substrate ENLAFQS	area with substrate ENLCFQS	area with substrate ENLDFQS	area with substrate ENLEFQS	area with substrate ENLFFQS	area with substrate ENLGFQS	area with substrate ENLHFQS	area with substrate ENLIFQS	area with substrate ENLKFQS	area with substrate ENLMFQS	area with substrate ENLNFQS	area with substrate ENLPFQS	area with substrate ENLQFQS	area with substrate ENLRFQS	area with substrate ENLSFQS	area with substrate ENLVFQS	area with substrate ENLLFQS	area with substrate ENLWFQS	area with substrate ENLTFQS
D149G	0.0625	0.0791	0.0571	0.0717	0.088	0.0592	0.0623	0.0858	0.0735	0.0675	0.0593	0.0654	0.075	0.0527	0.0594	0.0664			
W141S	0.041	0.0593	0.0445		0.0569		0.069	0.0437		0.0447	0.056	0.0548		0.0691	0.0389		0.0584	0.0515	
W141H	0.0539		0.059	0.0572	0.0666	0.0568	0.0516	0.0357	0.0695	0.0501	0.0756	0.0592	0.0846	0.0439	0.0554				
T174A	0.0674			0.0788	0.0958				0.0654		0.0622	0.0773					0.0768		
T174Y	0.0869	0.0721	0.0762	0.067		0.078	0.055		0.0726		0.0658			0.0692	0.0583				
G153V	0.0432		0.051	0.0484	0.054		0.0448	0.0602	0.0603		0.048				0.0744	0.0391			
T176G	0.0689	0.0717	0.0702	0.0484	0.0643	0.0684		0.0634	0.0593		0.0644			0.0485			0.056		
T176H	0.0648	0.056	0.0681		0.0626		0.0664	0.0595	0.0812			0.041		0.0734			0.0446		
P134Y	0.0813	0.0676	0.0547	0.0535	0.0734	0.0589	0.065	0.071			0.0661	0.0607	0.0588	0.0666	0.0621	0.0677	0.0577		0.0622
P134C	0.0648	0.0783	0.069	0.0568	0.082	0.0584	0.071		0.0682	0.0588	0.0667	0.0673	0.0664	0.0766	0.0633		0.0636	0.0531	
R160G	0.07	0.0684	0.0623	0.0557	0.0811	0.0051	0.042	0.0717	0.0841		0.0636	0.0687	0.0692	0.0593	0.0798			0.0787	
R160C	0.0869			0.0687	0.084		0.0634		0.0605		0.0666	0.0629	0.0542		0.0711	0.0831	0.0773	0.0657	
R160E	0.099	0.0866	0.0604	0.0588	0.0864	0.0743	0.0753	0.0698	0.0768		0.0765			0.0802	0.0722		0.0738	0.0608	
T119M	0.0639		0.0806	0.0598	0.0598						0.0711			0.0703			0.0851		
S123W	0.0659	0.0688	0.0623	0.0626	0.0897	0.0568	0.0699	0.081	0.0921		0.0623	0.068	0.0751	0.0663	0.0711		0.0791	0.0631	
S127T	0.0843	0.0772	0.0705	0.0622	0.0814	0.0702	0.0609		0.0911	0.092	0.0592	0.0597	0.0711		0.0738	0.0837	0.0795	0.0746	0.0753
T115M	0.0626	0.0718	0.0578	0.0628	0.0858	0.0862	0.0638		0.0784	0.0581	0.0619	0.0759	0.0731	0.113	0.0718	0.0835	0.0636	0.051	0.071
T115G	0.0617		0.0614	0.0638					0.0737							0.0608		0.05	
M125D	0.0692	0.0734	0.0592	0.0599	0.101		0.0727		0.0812	0.0771	0.0641	0.0605	0.0695	0.068	0.0794			0.0585	0.0632
G166C	0.0396		0.0615		0.0561		0.0562		0.0534		0.0577		0.0555	0.0566	0.0616		0.055		
S121Q	0.0614	0.0706	0.0699	0.0587	0.0805		0.0644	0.0874	0.0733	0.06	0.0626	0.061	0.0694	0.0645	0.0768	0.0752		0.0523	
N172C	0.0628				0.0719		0.0586				0.0758				0.0399				
I145T	0.069	0.0707	0.0655	0.0681	0.0965		0.069		0.089		0.0678	0.069	0.0621	0.0873	0.0767	0.0703	0.0531	0.0779	0.0597
G136F	0.075		0.066	0.0628	0.0922	0.0548	0.0673	0.0791		0.0633	0.0682	0.0535	0.13	0.0808	0.0687		0.0732		0.073
G136A	0.0883		0.0651	0.0856			0.0684		0.0731				0.0567			0.0589			
G136E	0.0665		0.063	0.0628	0.0743	0.0767	0.0614		0.075	0.0886	0.0666	0.05	0.0851	0.0728	0.059	0.0972	0.0714		
F117V	0.0581	0.0865	0.053	0.0558	0.0898	0.0731	0.0342			0.0765		0.0773	0.0709	0.0764	0.0602	0.0571	0.0663	0.071	
